The text below walks through data of PMC3923519 (Structure (London, England : 1993), 2013).

The target of the assay is bromodomain-PHD finger tandem module of human CBP (residues 1081-1316) (human, UniProt Q92793 1081-1316). Kind of assay: crystal structure.
Chain of UniProt Q92793 (Q92793 1081-1316): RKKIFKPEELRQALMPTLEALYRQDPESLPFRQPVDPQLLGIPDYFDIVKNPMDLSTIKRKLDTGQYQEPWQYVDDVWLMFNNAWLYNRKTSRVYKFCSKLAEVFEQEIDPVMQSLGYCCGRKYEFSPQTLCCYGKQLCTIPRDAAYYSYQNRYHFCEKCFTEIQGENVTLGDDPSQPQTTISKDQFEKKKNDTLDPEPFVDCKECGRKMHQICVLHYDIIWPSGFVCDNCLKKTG

B1: histone H4K12ac/K16ac peptide ([…]) (peptide)
peptide: not shown
modifications: acetyl-lysine at 12 and at 16 (Kac)
On to B1, for which the binding result is “binds”.
